In all, about 39,000 compounds went through this assay and about 220 (0.56%) showed activity. The list shows a part of the results.
What follows are compounds tested on Escherichia coli K-12 BW25113 (assay: relative growth (OD600 normalised to plate interquartile mean) (fraction); higher = less growth inhibition, active = 0.2 or less). Settings: 50 µM; LB; incubation time: overnight (16-24 h).
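Further: static incubation at 37 °C against the wild-type strain, values averaged over two biological replicates.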

SMILES	relative growth
CC(C)NC(=O)N(C)C[C@H]1OCCCC[C@H](C)Oc2ccc(NC(=O)Nc3ccc(F)cc3)cc2C(=O)N([C@H](C)CO)C[C@@H]1C	inactive: 0.882
Cc1ccc(S(=O)(=O)Nc2ccc3c(c2)C(=O)N([C@@H](C)CO)C[C@H](C)[C@H](CN(C)S(=O)(=O)c2c(C)noc2C)O3)cc1	inactive: 0.989
C[C@H](CO)N1C[C@H](C)[C@@H](CN(C)C(=O)NC2CCCCC2)OCCCC[C@H](C)Oc2ccc(NC(=O)Nc3ccc(F)cc3)cc2C1=O	inactive: 0.921
Cc1ccc(S(=O)(=O)Nc2ccc3c(c2)C(=O)N([C@H](C)CO)C[C@H](C)[C@H](CN(C)S(=O)(=O)c2ccc(F)cc2)O3)cc1	inactive: 1.02
CN(C)CCCNC(=O)C[C@@H]1C=C[C@@H](NC(=O)Cc2cccnc2)[C@@H](CO)O1	inactive: 0.989
COc1ccc(NC(=O)N(C)C[C@H]2Oc3ccc(NS(=O)(=O)c4cn(C)cn4)cc3CC(=O)N([C@@H](C)CO)C[C@H]2C)cc1	inactive: 0.985
C[C@@H]1CN([C@H](C)CO)C(=O)c2cc(C#CC3(O)CCCC3)cnc2O[C@H]1CN(C)S(C)(=O)=O	inactive: 0.993
O=C(C[C@H]1CC[C@@H]2[C@H](COC[C@H](O)CN2Cc2ccccc2F)O1)N[C@H]1CCN(Cc2ccccc2)C1	inactive: 1.03
C[C@H](CO)N1C[C@H](C)[C@@H](CN(C)Cc2ccc(Oc3ccccc3)cc2)Oc2ccc(NC(=O)Nc3cccc4ccccc34)cc2C1=O	inactive: 1.01
Cc1ccc(S(=O)(=O)N(C)C[C@@H]2OCCCC[C@H](C)Oc3ccc(NC(=O)CCC(F)(F)F)cc3C(=O)N([C@H](C)CO)C[C@H]2C)cc1	inactive: 1.03
CCCCc1oc2ccccc2c1C(=O)c1cc(I)c(OCCN(CC)CC)c(I)c1	inactive: 0.926
C[C@@H]1CCCCO[C@H](CN(C)C(=O)Nc2ccc(C(F)(F)F)cc2)[C@H](C)CN([C@@H](C)CO)C(=O)c2cc(NC(=O)C3CCCCC3)ccc2O1	inactive: 1.06
COc1ccc(C#Cc2cnc3c(c2)C(=O)N([C@H](C)CO)C[C@H](C)[C@H](CN(C)Cc2ccncc2)O3)cc1OC	inactive: 0.91
OCCOCc1nnn2c1CN(c1ncccn1)CCC2	inactive: 0.962
O=C(C1=C[C@H](c2ccc(Br)cc2)C[C@H](OCc2ccc(CO)cc2)O1)N1CCCCCCC1	inactive: 1.04
C[C@H](CO)N1C[C@H](C)[C@H](CN(C)C(=O)Nc2cccc(F)c2)Oc2cc(C#CC3(O)CCCC3)ccc2S1(=O)=O	inactive: 0.962
Cc1noc(C)c1NC(=O)Nc1ccc2c(c1)C(=O)N([C@H](C)CO)C[C@@H](C)[C@@H](CN(C)C(=O)Nc1ccc(C(F)(F)F)cc1)O2	inactive: 0.974
COc1ccc(NC(=O)Nc2ccc3c(c2)C(=O)N([C@@H](C)CO)C[C@@H](C)[C@H](CN(C)C(=O)Nc2cccc4ccccc24)OCCCC[C@@H](C)O3)cc1	inactive: 1.03
Cc1ccc(S(=O)(=O)N(C)C[C@@H]2OCCCC[C@@H](C)Oc3ccc(NS(=O)(=O)c4ccc(F)cc4)cc3C(=O)N([C@H](C)CO)C[C@H]2C)cc1	inactive: 1.02
C[C@H](CO)N1C[C@H](C)[C@@H](CN(C)S(=O)(=O)c2cccc(F)c2)Oc2ncc(C#CC3CC3)cc2C1=O	inactive: 1.03

SMILES	relative growth
O=C1C[C@]2(c3ccc([N+](=O)[O-])cc3)C(=O)N(CCN3CCOCC3)c3cc(CO)ccc3[C@H]2N1C1CCCCC1	inactive: 0.981
Cc1ccc(S(=O)(=O)Nc2ccc3c(c2)CC(=O)N([C@H](C)CO)C[C@H](C)[C@@H](CN(C)Cc2ccc(C(F)(F)F)cc2)O3)cc1	inactive: 1.01
Cc1ccccc1-c1ccc2c(c1)O[C@@H](CN(C)C(=O)Nc1ccc(C(F)(F)F)cc1)[C@H](C)CN([C@@H](C)CO)S2(=O)=O	inactive: 0.976
Cc1noc(C)c1NC(=O)Nc1ccc2c(c1)CC(=O)N([C@H](C)CO)C[C@@H](C)[C@H](CN(C)S(C)(=O)=O)O2	inactive: 1.01
COC(=O)CCc1c(c/2[nH]c1/C=C/1\N=C(/C=C/3\N=C(/C=C/4\N/C(=C2)[C@]2(C)[C@H](C(=O)OC)C(=CC=C42)C(=O)OC)C(=C3C=C)C)C(=C1CCC(=O)O)C)C	inactive: 1.92
C=C/C=C/[C@H]1C(=C)CN([C@H](Cc2ccc(-n3cc(COc4ccccc4/C=C(C)/C=C/C(=O)NO)nn3)cc2)C(=O)OC)[C@@H]1[C@H](O)Cc1ccccc1	inactive: 1.01
Cc1noc(C)c1NC(=O)Nc1cccc2c1O[C@H](CN(C)C(=O)Nc1cccc3ccccc13)[C@@H](C)CN([C@@H](C)CO)C2=O	inactive: 0.905
COc1ccc(S(=O)(=O)N2CCO[C@@H]2CNC(=O)C(=O)NCc2ccncc2)cc1	inactive: 1.01
COc1ccc(S(=O)(=O)N(C)C[C@@H]2Oc3cc(C4=CCCC4)ccc3S(=O)(=O)N([C@@H](C)CO)C[C@H]2C)cc1	inactive: 0.924
Cc1noc(C)c1S(=O)(=O)Nc1ccc2c(c1)C(=O)N([C@H](C)CO)C[C@H](C)[C@H](CN(C)Cc1ccc(C(F)(F)F)cc1)OCCCC[C@H](C)O2	inactive: 1.03
O=C(NCc1ccc2c(c1)OCO2)[C@H]1[C@H](CO)[C@H]2Cn3c(cccc3=O)[C@@H]1N2Cc1cncnc1	inactive: 0.986
COCC#Cc1ccc2c(c1)O[C@H](CN(C)S(=O)(=O)c1ccc(F)cc1)[C@H](C)CN([C@H](C)CO)S2(=O)=O	inactive: 1.02
C[C@H]1CN([C@@H](C)CO)C(=O)c2cccc(NC(=O)c3ccc(-c4nccs4)cc3)c2O[C@@H]1CN(C)CC1CCCCC1	inactive: 1.04
C[C@@H]1CN([C@H](C)CO)C(=O)c2cccc(NC(=O)Nc3ccccc3)c2O[C@@H]1CN(C)C(=O)Nc1ccc(C(F)(F)F)cc1	inactive: 1
O=C(O)CCn1ccnc1	inactive: 0.995
COc1ccc(S(=O)(=O)Nc2ccc3c(c2)CC(=O)N([C@@H](C)CO)C[C@@H](C)[C@H](CN(C)S(=O)(=O)c2c(C)noc2C)O3)cc1	inactive: 1.05
O=C(O)CCC/C=C\C/C=C\C/C=C\C/C=C\CCCCCO	inactive: 1
Cc1noc(C)c1NC(=O)Nc1ccc2c(c1)C(=O)N([C@@H](C)CO)C[C@@H](C)[C@@H](CN(C)S(=O)(=O)c1c(C)noc1C)O2	inactive: 1.01
O=C1O[C@@H]2C[C@H]1N(C(=O)[C@@H]1CC=CCC1)C2	inactive: 0.964
C[C@@H]1CN([C@H](C)CO)C(=O)c2cc(NC(=O)Nc3cccc4ccccc34)ccc2O[C@H]1CN(C)Cc1ccccc1	inactive: 0.979

SMILES	relative growth
Cn1c(=O)c2c(nc(SCSc3nc4c(c(=O)n(C)c(=O)n4C)n3C)n2C)n(C)c1=O	inactive: 0.966
Cc1nc2ccccc2n1Cc1ccc(Cl)cc1	inactive: 0.544
COc1ccc(CN(C)C[C@@H]2OCCCC[C@@H](C)Oc3ccc(NS(=O)(=O)c4ccccc4)cc3C(=O)N([C@H](C)CO)C[C@@H]2C)cc1	inactive: 1.03
CCN1CC(CCN2CCOCC2)C(c2ccccc2)(c2ccccc2)C1=O.Cl (centres undefined)	inactive: 1.09
CC(=O)Nc1cc2c(s1)CCCC2	inactive: 0.97
Cc1noc(C)c1NC(=O)Nc1ccc2c(c1)C(=O)N([C@H](C)CO)C[C@@H](C)[C@@H](CN(C)S(=O)(=O)c1ccc(F)cc1)OCCCC[C@H](C)O2	inactive: 0.98
COc1ccccc1-c1ccc2c(c1)O[C@H](CN(C)C(=O)c1cccnc1)[C@H](C)CN([C@@H](C)CO)S2(=O)=O	inactive: 1.03
C[C@@H]1CCCCO[C@@H](CN(C)S(=O)(=O)c2cccs2)[C@H](C)CN([C@@H](C)CO)C(=O)c2cc(NC(=O)CCC(F)(F)F)ccc2O1	inactive: 1.02
COC(=O)[C@H](Cc1ccccc1)N1CC2=C[C@@H](C3CC3)n3c(=O)n(C)c(=O)n3[C@H]2[C@@H]1[C@@H](O)CCn1cc(-c2cccc(/C=C/C(=O)NO)c2)nn1	inactive: 1.03
COc1ccc(S(=O)(=O)N(C)C[C@@H]2OCCCC[C@@H](C)Oc3ccc(NS(=O)(=O)c4cn(C)cn4)cc3C(=O)N([C@@H](C)CO)C[C@H]2C)cc1	inactive: 1.01
COc1ccc(S(=O)(=O)N2C[C@H](O)COC[C@H]3O[C@@H](CC(=O)N[C@H]4CCN(Cc5ccccc5)C4)CC[C@@H]32)cc1	inactive: 0.987
Cc1cc(=O)oc2cc(O)ccc12	inactive: 0.9
COc1ccc(NC(=O)N(C)C[C@H]2Oc3ccc(NS(=O)(=O)c4c(C)noc4C)cc3C(=O)N([C@H](C)CO)C[C@H]2C)cc1	inactive: 0.987
O=C(O)c1c(Br)c(Br)c(Br)c(Br)c1-c1c2ccc(=O)cc-2oc2cc(O)ccc12	inactive: 0.951
COc1ccc(NC(=O)N(C)C[C@@H]2Oc3cc(C#CCN(C)C)ccc3S(=O)(=O)N([C@H](C)CO)C[C@H]2C)cc1	inactive: 0.988
C[C@H]1CCCCO[C@H](CN(C)C(=O)c2ccncc2)[C@@H](C)CN([C@@H](C)CO)C(=O)c2cc(NS(C)(=O)=O)ccc2O1	inactive: 0.996
CC(C)Oc1ccc(S(=O)(=O)N2CCN(c3ccc(-c4ncco4)c(OCC(=O)O)c3)CC2)cc1	inactive: 0.944
C[C@@H]1CN([C@@H](C)CO)C(=O)Cc2cc(NS(=O)(=O)c3cn(C)cn3)ccc2O[C@@H]1CN(C)C(=O)Nc1ccc(F)cc1	inactive: 0.94
C[C@@H]1CN([C@@H](C)CO)C(=O)c2cccc(NC(=O)C3CCOCC3)c2O[C@@H]1CN(C)S(=O)(=O)c1ccc(Cl)cc1	inactive: 1.04
